Assay results reported in the supplement of paper PMC4967469.
By IC50 is meant the dose at which the fit gives 50% viability; fits outside the tested doses are given as limits. For AUC the same curve is integrated over the 256-fold range of doses and scaled to a fraction: 1 means no effect, lower means more sensitive. A top dose marked as inferred is not printed in the source and was worked back from the curve model.

Legend:
FK866 = compound: O=C(/C=C/c1cccnc1)NCCCCC1CCN(C(=O)c2ccccc2)CC1 [FK866]; experiment: Viability of human cancer cell lines after 72 h of drug (GDSC screen); details: top dose 1 µM; top dose inferred
Method: (§1)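 Human cancer cell lines in 384-well plates, medium with 10% serum, drug for 72 h over a 256-fold dose range (nine 2-fold or five 4-fold steps up to the top dose). Adherent lines were fixed and stained with the nucleic acid dye Syto60, suspension lines read with resazurin; signal relative to control wells, capped at 0 and 100%. One two-parameter sigmoid per drug and line, fitted in a mixed model over all curves with the slope shared within a line.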

FR-180204 = compound: Nc1[nH]nc2nnc(-c3c(-c4ccccc4)nn4ccccc34)cc12 [FR-180204]; experiment: as above; details: top dose 20 µM; top dose inferred
Method: as §1

Cell Line | AUC (FK866) | IC50 (FK866) | AUC (FR-180204) | IC50 (FR-180204)
NCI-H1435 (lung adenocarcinoma, semi-adherent) | 0.481 | 0.0559 µM | 0.992 | > 20 µM
NCI-H1436 (small cell lung carcinoma, suspension) | 0.06 | < 0.00391 µM | 0.969 | > 20 µM
NCI-H1437 (lung adenocarcinoma, adherent) | 0.697 | 0.23 µM | 0.984 | > 20 µM
NCI-H1563 (lung adenocarcinoma, adherent) | 0.964 | > 1 µM | 0.947 | > 20 µM
NCI-H1568 (lung adenocarcinoma, adherent) | 0.841 | 0.967 µM | 0.958 | > 20 µM
NCI-H1573 (lung adenocarcinoma, adherent) | 0.966 | > 1 µM | 0.983 | > 20 µM
NCI-H1581 (large cell lung carcinoma, semi-adherent) | 0.299 | 0.018 µM | 0.986 | > 20 µM
NCI-H1623 (lung adenocarcinoma, adherent) | 0.962 | > 1 µM | 0.969 | > 20 µM
NCI-H1648 (lung adenocarcinoma, adherent) | 0.956 | > 1 µM | 0.973 | > 20 µM
NCI-H1651 (lung adenocarcinoma, adherent) | 0.805 | 0.554 µM | 0.982 | > 20 µM
NCI-H1666 (lung adenocarcinoma, semi-adherent) | 0.899 | > 1 µM | 0.976 | > 20 µM
NCI-H1688 (small cell lung carcinoma, adherent) | 0.839 | 0.786 µM | 0.903 | > 20 µM
NCI-H1693 (lung adenocarcinoma, adherent) | 0.694 | 0.308 µM | 0.888 | > 20 µM
NCI-H1694 (small cell lung carcinoma, suspension) | 0.181 | 0.0069 µM | 0.983 | > 20 µM
NCI-H1703 (lung adenocarcinoma, adherent) | 0.735 | 0.344 µM | 0.981 | > 20 µM
NCI-H1755 (lung adenocarcinoma, adherent) | 0.783 | 0.494 µM | 0.965 | > 20 µM
NCI-H1770 (non-small cell lung carcinoma, suspension) | 0.171 | 0.00753 µM | 0.946 | > 20 µM
NCI-H1781 (lung adenocarcinoma, adherent) | 0.982 | > 1 µM | 0.983 | > 20 µM
NCI-H1792 (lung adenocarcinoma, adherent) | 0.19 | 0.00841 µM | 0.981 | > 20 µM
NCI-H1793 (lung adenocarcinoma, adherent) | 0.914 | > 1 µM | 0.981 | > 20 µM
NCI-H1836 (small cell lung carcinoma, suspension) | 0.742 | 0.335 µM | 0.98 | > 20 µM
NCI-H1838 (lung adenocarcinoma, adherent) | 0.848 | > 1 µM | 0.969 | > 20 µM
NCI-H1869 (lung squamous cell carcinoma, adherent) | 0.681 | 0.216 µM | 0.964 | > 20 µM

Cell Line | AUC (FK866) | IC50 (FK866) | AUC (FR-180204) | IC50 (FR-180204)
NCI-H1876 (small cell lung carcinoma, adherent) | 0.042 | < 0.00391 µM | 0.961 | > 20 µM
NCI-H1915 (large cell lung carcinoma, adherent) | 0.406 | 0.0343 µM | 0.987 | > 20 µM
NCI-H1944 (lung adenocarcinoma, adherent) | 0.972 | > 1 µM | 0.943 | > 20 µM
NCI-H1975 (lung adenocarcinoma, adherent) | 0.965 | > 1 µM | 0.967 | > 20 µM
NCI-H1993 (lung adenocarcinoma, adherent) | 0.918 | > 1 µM | 0.926 | > 20 µM
NCI-H2009 (lung adenocarcinoma, adherent) | 0.728 | 0.29 µM | 0.986 | > 20 µM
NCI-H2023 (lung adenocarcinoma, adherent) | 0.764 | 0.452 µM | 0.974 | > 20 µM
NCI-H2029 (small cell lung carcinoma, adherent) | 0.974 | > 1 µM | 0.982 | > 20 µM
NCI-H2030 (lung adenocarcinoma, adherent) | 0.299 | 0.0156 µM | 0.941 | > 20 µM
NCI-H2081 (small cell lung carcinoma, suspension) | 0.24 | 0.0106 µM | 0.972 | > 20 µM
NCI-H2085 (lung adenocarcinoma, adherent) | 0.919 | > 1 µM | 0.961 | > 20 µM
NCI-H2087 (lung adenocarcinoma, semi-adherent) | 0.958 | > 1 µM | 0.976 | > 20 µM
NCI-H2110 (non-small cell lung carcinoma, adherent) | 0.985 | > 1 µM | 0.875 | > 20 µM
NCI-H2122 (lung adenocarcinoma, adherent) | 0.732 | 0.272 µM | 0.988 | > 20 µM
NCI-H2135 (non-small cell lung carcinoma, adherent) | 0.97 | > 1 µM | 0.938 | > 20 µM
NCI-H2141 (small cell lung carcinoma, suspension) | 0.108 | < 0.00391 µM | 0.989 | > 20 µM
NCI-H2170 (lung squamous cell carcinoma, adherent) | 0.91 | > 1 µM | 0.984 | > 20 µM
NCI-H2172 (non-small cell lung carcinoma, adherent) | 0.918 | > 1 µM | 0.947 | > 20 µM
NCI-H2227 (small cell lung carcinoma, semi-adherent) | 0.197 | 0.0068 µM | 0.968 | > 20 µM
NCI-H2228 (lung adenocarcinoma, adherent) | 0.887 | > 1 µM | 0.966 | > 20 µM
NCI-H2291 (lung adenocarcinoma, adherent) | 0.982 | > 1 µM | 0.98 | > 20 µM
NCI-H2342 (lung adenocarcinoma, adherent) | 0.961 | > 1 µM | 0.979 | > 20 µM
NCI-H2347 (lung adenocarcinoma, adherent) | 0.887 | > 1 µM | 0.98 | > 20 µM

Cell Line | AUC (FK866) | IC50 (FK866) | AUC (FR-180204) | IC50 (FR-180204)
NCI-H2405 (lung adenocarcinoma, adherent) | 0.41 | 0.0345 µM | 0.925 | > 20 µM
NCI-H2444 (non-small cell lung carcinoma, adherent) | 0.973 | > 1 µM | 0.966 | > 20 µM
NCI-H2452 (mesothelioma, adherent) | 0.899 | > 1 µM | 0.983 | > 20 µM
NCI-SNU-1 (stomach, suspension) | 0.204 | 0.00805 µM | 0.96 | > 20 µM
NCI-SNU-5 (stomach, suspension) | 0.543 | 0.0823 µM | 0.989 | > 20 µM
NEC8 (testis, adherent) | 0.051 | < 0.00391 µM | 0.986 | > 20 µM
NH-12 (neuroblastoma, adherent) | 0.983 | > 1 µM | 0.951 | > 20 µM
NKM-1 (acute myeloid leukaemia, suspension) | 0.135 | 0.0042 µM | 0.911 | > 20 µM
NMC-G1 (glioma, adherent) | 0.612 | 0.137 µM | 0.982 | > 20 µM
NOS-1 (osteosarcoma, adherent) | 0.966 | > 1 µM | 0.934 | > 20 µM
NTERA-2 cl.D1 (testis, adherent) | 0.074 | < 0.00391 µM | 0.979 | > 20 µM
NU-DUL-1 (B-cell lymphoma, suspension) | 0.022 | < 0.00391 µM | 0.978 | > 20 µM
NUGC-3 (stomach, adherent) | 0.557 | 0.0911 µM | 0.981 | > 20 µM
NUGC-4 (stomach, adherent) | 0.692 | 0.216 µM | 0.844 | 14.4 µM
NY (osteosarcoma, adherent) | 0.986 | > 1 µM | 0.989 | > 20 µM
OACM5-1 (oesophagus, semi-adherent) | 0.345 | 0.0219 µM | 0.931 | > 20 µM
OACp4C (oesophagus, adherent) | 0.26 | 0.011 µM | 0.87 | > 20 µM
OAW-28 (ovary, adherent) | 0.843 | > 1 µM | 0.916 | > 20 µM
OAW-42 (ovary, adherent) | 0.677 | 0.204 µM | 0.983 | > 20 µM
OC-314 (ovary, adherent) | 0.071 | < 0.00391 µM | 0.974 | > 20 µM
OCI-AML2 (acute myeloid leukaemia, suspension) | 0.012 | < 0.00391 µM | 0.903 | 14.4 µM
OCI-AML3 (acute myeloid leukaemia, suspension) | 0.02 | < 0.00391 µM | 0.966 | > 20 µM
OCI-AML5 (acute myeloid leukaemia, suspension) | 0.063 | < 0.00391 µM | 0.93 | > 20 µM

Cell Line | AUC (FK866) | IC50 (FK866) | AUC (FR-180204) | IC50 (FR-180204)
OCI-LY-19 (B-cell lymphoma, suspension) | 0.04 | < 0.00391 µM | 0.86 | 14.7 µM
OCI-M1 (acute myeloid leukaemia, suspension) | 0.029 | < 0.00391 µM | 0.969 | > 20 µM
OCUB-M (breast, adherent) | 0.679 | 0.183 µM | 0.981 | > 20 µM
OE19 (oesophagus, adherent) | 0.417 | 0.0359 µM | 0.984 | > 20 µM
OE21 (oesophagus, adherent) | 0.538 | 0.0823 µM | 0.941 | > 20 µM
OE33 (oesophagus, adherent) | 0.844 | 0.932 µM | 0.931 | > 20 µM
OMC-1 (cervix, adherent) | 0.884 | > 1 µM | 0.988 | > 20 µM
ONS-76 (medulloblastoma, adherent) | 0.103 | < 0.00391 µM | 0.981 | > 20 µM
OPM-2 (myeloma, suspension) | 0.479 | 0.0555 µM | 0.977 | > 20 µM
OS-RC-2 (kidney, adherent) | 0.69 | 0.272 µM | 0.97 | > 20 µM
OSC-19 (head and neck, adherent) | 0.673 | 0.194 µM | 0.968 | > 20 µM
OSC-20 (head and neck, adherent) | 0.565 | 0.0975 µM | 0.973 | > 20 µM
OV-7 (ovary, adherent) | 0.598 | 0.134 µM | 0.95 | > 20 µM
OV-17R (ovary, adherent) | 0.956 | > 1 µM | 0.961 | > 20 µM
OV-56 (ovary, adherent) | 0.717 | 0.249 µM | 0.989 | > 20 µM
OV-90 (ovary, adherent) | 0.673 | 0.219 µM | 0.972 | > 20 µM
OVCA420 (ovary, adherent) | 0.828 | 0.919 µM | 0.93 | > 20 µM
OVCA433 (ovary, adherent) | 0.948 | > 1 µM | 0.957 | > 20 µM
OVCAR-3 (ovary, adherent) | 0.396 | 0.0314 µM | 0.985 | > 20 µM
OVCAR-4 (ovary, adherent) | 0.615 | 0.151 µM | 0.943 | > 20 µM
